Results from publication PMC4336329 (PLoS ONE, 2015).
The whole screen tested about 310,000 compounds, of which about 14,000 (4.5%) showed an effect of 50% or more. The effect is printed as a negative number. The list shows a part of the results.

Biological target: human ether-à-go-go-related gene (hERG) potassium channel (human, UniProt Q12809)
Experiment: primary screen, population patch clamp on CHO cells stably expressing hERG
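Also: peak tail current of the secondary pulse compared with the same well before compound.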

Sequence of human ether-à-go-go-related gene (hERG) potassium channel (Q12809 whole entry, looked up): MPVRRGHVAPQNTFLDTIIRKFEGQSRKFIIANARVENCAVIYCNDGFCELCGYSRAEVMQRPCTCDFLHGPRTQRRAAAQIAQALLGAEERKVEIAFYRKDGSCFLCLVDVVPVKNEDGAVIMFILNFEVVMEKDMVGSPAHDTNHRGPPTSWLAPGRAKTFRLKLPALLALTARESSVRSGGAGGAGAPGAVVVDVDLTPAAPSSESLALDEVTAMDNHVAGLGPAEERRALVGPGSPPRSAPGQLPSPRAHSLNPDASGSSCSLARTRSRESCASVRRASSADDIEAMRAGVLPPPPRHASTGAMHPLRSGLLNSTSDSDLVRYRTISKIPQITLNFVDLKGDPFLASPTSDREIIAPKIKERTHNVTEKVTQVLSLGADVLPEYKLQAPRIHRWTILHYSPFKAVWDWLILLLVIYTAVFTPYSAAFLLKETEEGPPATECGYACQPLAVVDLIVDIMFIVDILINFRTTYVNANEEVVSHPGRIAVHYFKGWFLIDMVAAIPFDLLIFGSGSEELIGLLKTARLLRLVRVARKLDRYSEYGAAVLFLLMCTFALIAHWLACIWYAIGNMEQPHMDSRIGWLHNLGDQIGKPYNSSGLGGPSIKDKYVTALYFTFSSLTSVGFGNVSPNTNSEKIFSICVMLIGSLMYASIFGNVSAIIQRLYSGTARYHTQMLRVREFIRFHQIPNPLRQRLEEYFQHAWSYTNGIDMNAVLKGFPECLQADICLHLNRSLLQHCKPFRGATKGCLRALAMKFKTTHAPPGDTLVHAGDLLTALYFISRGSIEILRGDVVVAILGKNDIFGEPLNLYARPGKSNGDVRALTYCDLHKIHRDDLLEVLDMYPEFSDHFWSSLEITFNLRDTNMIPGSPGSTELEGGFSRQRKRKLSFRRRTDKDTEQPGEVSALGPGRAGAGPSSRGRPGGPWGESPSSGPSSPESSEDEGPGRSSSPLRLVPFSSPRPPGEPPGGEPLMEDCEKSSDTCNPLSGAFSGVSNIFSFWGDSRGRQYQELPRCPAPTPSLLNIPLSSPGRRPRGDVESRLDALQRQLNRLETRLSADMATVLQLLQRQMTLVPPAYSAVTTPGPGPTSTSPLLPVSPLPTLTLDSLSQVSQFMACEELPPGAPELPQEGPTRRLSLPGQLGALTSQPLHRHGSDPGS

| Structure (SMILES) | hERG current change (%, negative = inhibition) at 10uM [%] |
| --- | --- |
| O=C(CSc1nc2scc(-c3ccccc3)c2c(=O)[nH]1)NC1CCCCC1 | 16.6 |
| CCOc1ccccc1NC(=O)c1oc2ccccc2c1NC(=O)C1CC1 | 4.15 |
| C=CCNC(=O)C1CC=CCC1C(=O)O (stereo not drawn) | 13.1 |
| CCn1c(C)c(C(C)=O)c(NCc2ccccc2)nc1=S | -4.97 |
| O=C(NCc1ccc(-n2cccc2)cc1)c1cccc(F)c1 | 14.1 |
| S=P(N1CC1)(N1CC1)N1CC1 | 13.6 |
| C/C=C(\C)C(=O)NCCN1C2=NC[C@@H](Cc3ccccc3)N2C[C@@H]1Cc1ccc(OC)cc1 | -60.3 |
| O=C1c2ccc3c4c(ccc(c24)C(=O)N1c1ccc(O)cc1)C(=O)N(c1ccc(O)cc1)C3=O | 23.3 |
| Cc1ccc2[nH]c(=O)c(CN(CC3COCCO3)C(=O)Nc3ccccc3F)cc2c1 (stereo not drawn) | 2.41 |
| CCC(C)NC(=O)c1cc(S(=O)(=O)N2CCCCC2)c[nH]1 (stereo not drawn) | 34 |
| CCOc1cc(N2CCOCC2)c(OCC)cc1NC(=O)c1cc(C)cc(C)c1 | 7.45 |
| CCCCNCc1cc(Br)c(OCc2cccs2)c(OC)c1.Cl | -33.7 |
| Cc1ccc(NC(=O)c2cc(=O)c3ccccc3o2)cc1 | 15.6 |
| CCCC12CN3CC(C)(CN(C1)C3c1cccs1)C2=O (stereo not drawn) | -7.68 |
| NC(=O)C1CCN(c2ncc(C(F)(F)F)cc2Cl)CC1 | 8.42 |
| COc1cccc(OC)c1C(=O)OCC(=O)NCCCc1ccccc1 | -2.98 |
| COC(=O)C1=NN(N=O)C2(CC(=O)N(c3cc(C)cc(C)c3)C2=O)C1 (stereo not drawn) | -3.76 |
| O=C1CC(=O)Nc2cc(S(=O)(=O)NCc3cccs3)ccc2N1 | 14.2 |
| Cc1cc(C(=O)Nc2nnc(C(F)(F)F)s2)cs1 | -6.9 |
| CC(C)Oc1ccc(Cl)cc1Nc1nc(NCCO)nc(N2CCCC2)n1 | 2.23 |
| Cc1ccc(-n2ncc3c(Nc4cccc(C(=O)O)c4)ncnc32)cc1 | 16.4 |
| COc1ccccc1Cn1nc(C(=O)O)c2ccccc2c1=O | 20.1 |

| Structure (SMILES) | hERG current change (%, negative = inhibition) at 10uM [%] |
| --- | --- |
| COc1ccc(-c2nnc(-c3ccc(F)cc3)o2)cc1 | 14.2 |
| CCCSc1nc(O)c(C2OC(=O)c3c2ccc(OC)c3OC)c(=O)n1-c1ccccc1 (stereo not drawn) | 30.5 |
| CCc1nnc(NC(=O)Cc2cc(OC)c(OC)c(OC)c2)s1 | 17.2 |
| Cc1ccccc1C(=O)Nc1nncs1 | 17.8 |
| O=C(NCCCSc1ccccc1)c1cc(Cl)ccc1O | 8.27 |
| CC(=O)c1ccc(NC(=O)CSc2nnc(-c3ccoc3C)n2Cc2ccccc2)cc1 | -30.8 |
| CC(C)(C)C(=O)NC(n1cnc2c(N3CCOCC3)ncnc21)C(Cl)(Cl)Cl (stereo not drawn) | 2.02 |
| COc1cc(C(=O)NCc2cccc3ccccc23)ccc1OCc1ccccc1 | 14 |
| CCC(C)C(=O)Nc1nnc(CCc2ccccc2)s1 (stereo not drawn) | 0.562 |
| Cn1ncc(Cl)c1C(=O)N/N=C/c1cccc(OC2CSC2)c1 | 8.77 |
| O=C(CN1CCc2cc3c(cc2C1)OCCCO3)Nc1ccc(F)cc1 | 15 |
| O=C(NCc1ccccc1)C1=C[C@@H](C2CCCCC2)C[C@@H](OCc2ccc(CO)cc2)O1 | 1.59 |
| CC(=O)Nc1cccc(C(=O)OCCCOc2ccc(F)cc2)c1 | 18.8 |
| CNC[C@H](NC[C@@H](NCCCc1ccccc1)c1ccccc1)[C@H](C)O | 11.7 |
| COc1ccc(Cc2nc(-c3cccnc3)no2)cc1OC | 29.8 |
| COc1ccccc1NC(=O)c1cnc(SCC(=O)NCCc2ccccc2)n(C)c1=O | -5.15 |
| CC(C)(C)N(Cc1cc2ccccc2[nH]c1=O)C(=O)c1cccnc1 | -11.8 |
| NNC(=O)CSCc1ccc(Cl)cc1Cl | -2 |
| O=C(CSc1nc2ccccc2n1CCc1ccccc1)NC1CCS(=O)(=O)C1 (stereo not drawn) | -1.96 |
| CCNC(=O)NC(=O)C(C)OC(=O)C1CCN(S(=O)(=O)c2ccccc2C(=O)OC)CC1 (stereo not drawn) | 20.7 |
| COc1ccc(/C=N/NC(=O)Cn2nc([N+](=O)[O-])cc2C)c(OC)c1OC | 14.2 |
| CCOC(=O)c1c(C)n(COCCO)c2ccc(O)cc12 | 20.4 |

| Structure (SMILES) | hERG current change (%, negative = inhibition) at 10uM [%] |
| --- | --- |
| COc1ccc(NC(=O)CSc2nc3c(sc4ccccc43)c(=O)n2CCCN2CCCC2)cc1 | -30.8 |
| CCOC(=O)C1=C(Cn2cnc3ccccc32)NC(=O)NC1c1cc(C)ccc1C (stereo not drawn) | -13.9 |
| COc1ccccc1N1CCN(C(=O)CSc2ncnc3c2cnn3-c2ccc(C)c(C)c2)CC1 | 0.787 |
| NC(=O)c1nc(C(=O)N2CCN(c3ccccc3)CC2)c2ccccc2n1 | 2.14 |
| COC(=O)Nc1ccc(S(=O)(=O)N2CCCc3cccc(O)c32)cc1 | 40.2 |
| CN(C)CCNc1nc2c(c(=O)[nH]c(=O)n2C)n1CC(O)COc1ccc(Cl)cc1 (stereo not drawn) | -20 |
| COc1ccc(N2CCN(CC(O)COC(c3ccc(F)cc3)c3ccc(F)cc3)CC2)cc1.O=C(O)C(=O)O (stereo not drawn) | -81.6 |
| COc1ccc(CNC(=O)c2cccc(S(=O)(=O)N3CCCCC3)c2)cc1OC | 4.35 |
| CC1(C)O[C@H]2CC(=O)OC[C@]23[C@H]2CC[C@@]4(C)[C@H](c5ccoc5)OC(=O)[C@H]5O[C@]54[C@]2(C)[C@@H](O)C[C@@H]13 | 17.1 |
| Cc1ccc(C(=O)C2CCN(C(=O)c3ccc(C)cc3)CC2)cc1 | -36.8 |
| O=C(C(Cc1ccccc1)n1cccc1)N1CCN(c2ccccc2)CC1 (stereo not drawn) | -7.46 |
| COC(=O)Cn1c(=NC(=O)C(C)C)sc2c(C)cc(C)cc21 | 15.4 |
| COc1cc(C(=O)OCC(=O)NC(C)CCc2ccccc2)cc(OC)c1OC (stereo not drawn) | 9.14 |
| N#Cc1nc(-c2ccc(OCc3ccc(Cl)cc3)cc2)oc1N1CCOCC1 | 7.35 |
| CCN1C(=O)C2(C(C#N)=C(N)Oc3n[nH]c(-c4ccccc4)c32)c2ccccc21 (stereo not drawn) | 6.05 |
| COc1cccc(/C=C2\SC(N)=NC2=O)c1OS(=O)(=O)c1ccccc1 | 5.38 |
| CCOC(=O)c1nc(Nc2ccccc2C)c2ccccc2n1 | 10.4 |
| CN1CCC(Oc2ccccc2Sc2ccccc2)CC1.O=C(O)C(=O)O | -64.5 |
| O=C(N/C(=C\c1ccc([N+](=O)[O-])cc1)C(=O)N1CCCCC1)c1ccc(Br)o1 | -72 |
| COc1ccccc1C(=O)Nc1ccnn1C1CCN(CCCC2CCCC2)CC1 | -85.1 |
| COCC(=O)OCc1cc2cccc(C)c2[nH]c1=O | 1.89 |
| CNc1nc(Cl)c(SC)c(NCc2cccc(OC)c2)n1 | 13.9 |

| Structure (SMILES) | hERG current change (%, negative = inhibition) at 10uM [%] |
| --- | --- |
| O=C(Nc1nc(-c2ccc(Cl)cc2)cs1)c1cccnc1 | 5.68 |
| Cl.Oc1ccc(CN2CCCCC2)nc1-c1ccccc1 | -40.8 |
| COc1ccccc1CC(=O)NC1CCC(C)CC1 (stereo not drawn) | 7.47 |
| COC(=O)c1sc(NC(=O)C(C)C)c(C(=O)OC)c1C | 17.1 |
| COc1ccc2c(c1)OC[C@H]1[C@@H]2N2C(=O)CNC(=O)[C@@]2(C)[C@H]1c1ccccc1 | 10.9 |
| Cn1c(/C=N/c2nc3ccccc3[nH]2)nc2ccccc21 | 3.85 |
| CN(C)c1ccc(/C=N/NC(=O)c2cccc(C(=O)N/N=C/c3ccc(N(C)C)cc3)n2)cc1 | 10.4 |
| Br.COc1ccc(C(=O)Cn2c(NCCO)nc3ccccc32)cc1OC | 1.68 |
| O=C(O)CCCC(=O)Nc1ccc(Sc2ccc([N+](=O)[O-])cc2)cc1 | 18.8 |
| c1ccc(-c2nc3ccccc3o2)nc1 | 3.97 |
| Nc1nc(-c2ccco2)nc(N2CCCCC2)n1 | -0.365 |
| Cc1ccc(N2C(=O)CC3(CCCC3)CC2=O)cc1 | -5.41 |
| COc1ccc(NC(C)=O)cc1NC(=O)CN1CCN(CC(=O)Nc2ccc(Cl)cc2)CC1 | -69.8 |
| Cc1ccc(C(=O)COC(=O)c2ccco2)cc1C | 11.4 |
| CCCC(=O)Nc1ccccc1N1CCN(C(=O)C(C)C)CC1 | 11.4 |
| CN(C)S(=O)(=O)N1CCC(Oc2ccc(C(=O)NC3CCOC(C)(C)C3)cc2)CC1 (stereo not drawn) | 1.41 |
| Cc1nc(NCCOc2ccccc2)sc1C(=O)Nc1ccccc1 | -8.96 |
| CC(=O)c1cc2c(cc1NC(=O)Cn1nc(-c3ccc(C)cc3)ccc1=O)OCO2 | -1.96 |
| CC(C)[C@H](NC(=O)c1cccc(S(=O)(=O)N2CCOCC2)c1)C(=O)Nc1nccs1 | -0.442 |
| CCOc1cc([N+](=O)[O-])cc(/C=C2/NC(=O)N(Cc3ccccc3F)C2=O)c1O | -41.6 |
| CCOC(=O)C(C)Sc1ccc2nnc(CCNS(=O)(=O)c3ccccc3)n2n1 (stereo not drawn) | 7.34 |
